# Target: KIT(D816V) (Homo sapiens, UniProt P10721, D816V)
# Test: Ambit kinase phage display ATP-binding-site ligand binding assay
# Conditions: read-out: percent inhibition of binding
# From the text: This assay is based on ligand-affinity/protein kinase phage display and was employed essentially as described by Fabian et. al [Nature Biotech. 2005, 23, 329], which is incorporated herein by reference. In this assay, protein kinases are cloned into T7 bacteriophage which express the kinase fusion proteins on the phage capsid. T7 kinase-tagged phage are then screened for binding to ATP-binding-site ligands that have been immobilized on a solid support. Phage are screened for binding to the anchored ligands both in the presence of test compound and in its absence (control). Elution of the bound phage by free ligand (ATP-binding site ligand that is not immobilized on a solid support) followed by determination of the phage titre provides a reliable measure of the ability of test compounds to block binding of target kinases to resin-bound ATP-binding-site ligands. […]
# Compound 10 (FIG. 4) was dissolved in DMSO to make a 1,000-X stock solution which was diluted to 10 μM in aqueous assay buffer system. […] The phage titre of the eluates was measured by quantitative PCR or by plaque assays. […]
smiles,measurement,value
CCOC(=O)C[C@@H]1C(O[Si](C)(C)C(C)(C)C)[C@H](n2cnc3c(NC(=O)Nc4ccccc4)ncnc32)O[C@@H]1CNC(=O)NC (stereo partly shown) [Compound 10],inhibition at 10 µM,20 to 29%
